The densities may have been worked out from excess volumes.
Experiment: xn = mol fraction of the nth substance listed
Conditions: 101 kPa

O + CCCn1cc[n+](C)c1C.F[B-](F)(F)F
x1 = 1
Conditions | mass density [kg/m3]
303.15 K | 996
333.15 K | 983.2
343.15 K | 977.8

CCCn1cc[n+](C)c1C.F[B-](F)(F)F + O
mass density [kg/m3]
Conditions | x2 = 0 | x2 = 0.0939 | x2 = 0.1932 | x2 = 0.2833 | x2 = 0.3944 | x2 = 0.4987 | x2 = 0.5995 | x2 = 0.6985 | x2 = 0.8009 | x2 = 0.8988
298.15 K | 1225 | 1222 | – | 1214 | 1207 | 1200 | 1190 | 1176 | 1154 | 1113
303.15 K | 1222 | 1218 | – | 1210 | – | – | 1186 | 1172 | 1150 | 1110
308.15 K | 1219 | 1215 | 1211 | – | – | 1193 | – | 1168 | 1147 | 1107
313.15 K | 1217 | 1213 | 1209 | 1205 | 1198 | 1191 | 1180 | 1166 | 1145 | 1105
318.15 K | 1216 | – | – | 1203 | 1197 | 1189 | 1179 | 1165 | 1143 | 1103
323.15 K | 1215 | 1211 | 1207 | 1202 | 1196 | 1188 | 1178 | 1164 | 1142 | 1102
333.15 K | 1213 | – | 1204 | 1200 | 1193 | 1185 | – | – | 1138 | 1098
343.15 K | 1212 | – | 1203 | 1198 | 1191 | 1183 | 1172 | 1158 | 1134 | 1094

Source: a compilation of properties of binary mixtures (doi:10.1021/je800965t)
